Where a chain is given by its changes, count along the chain named. No constants are given. Whether binding was seen depends on the method and setting. Binding seen in cells or lysates may run through a third protein. Some binding calls cover weakened binding; strength is not graded here. For some of these results: Where a sequence is shown, tags or fusion partners need not be part of it. Blank lines part the entries; values can stand above or below the molecule they belong to.
Experiments:
Flag-TTP S316D (mouse) = target: T1, Flag-TTP S316D (mouse) (UniProt P22893); experiment: co-IP; Flag-TTP constructs transfected into HEK293T; lysate in NET buffer (50 mM Tris pH 7.5, 150 mM NaCl, 1 mM EDTA, 0.1% Triton X-100) with protease and phosphatase inhibitors; anti-Flag M2 agarose, 4 °C, 2 h; blots for endogenous proteins; some panels after negative-control, CNOT6 or CNOT7 siRNA, or with or without 1 μM okadaic acid for 1 h
T1 sequence: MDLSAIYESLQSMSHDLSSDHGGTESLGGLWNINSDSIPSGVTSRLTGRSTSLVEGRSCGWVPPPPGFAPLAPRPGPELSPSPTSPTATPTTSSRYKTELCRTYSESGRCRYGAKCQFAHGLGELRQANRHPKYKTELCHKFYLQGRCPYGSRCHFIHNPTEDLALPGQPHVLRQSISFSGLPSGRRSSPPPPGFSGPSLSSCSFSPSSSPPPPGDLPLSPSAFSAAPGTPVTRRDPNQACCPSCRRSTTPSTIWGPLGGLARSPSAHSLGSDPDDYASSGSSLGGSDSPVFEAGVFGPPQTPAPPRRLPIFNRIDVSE

Amino acid sequences for entries named in this document (tags omitted).
UniProt P63101: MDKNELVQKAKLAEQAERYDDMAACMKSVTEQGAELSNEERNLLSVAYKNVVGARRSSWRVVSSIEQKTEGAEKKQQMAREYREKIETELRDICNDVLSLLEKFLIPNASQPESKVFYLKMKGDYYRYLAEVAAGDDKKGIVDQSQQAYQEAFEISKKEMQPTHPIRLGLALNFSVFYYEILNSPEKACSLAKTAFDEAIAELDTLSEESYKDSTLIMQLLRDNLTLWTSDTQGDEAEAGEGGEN
UniProt A5YKK6: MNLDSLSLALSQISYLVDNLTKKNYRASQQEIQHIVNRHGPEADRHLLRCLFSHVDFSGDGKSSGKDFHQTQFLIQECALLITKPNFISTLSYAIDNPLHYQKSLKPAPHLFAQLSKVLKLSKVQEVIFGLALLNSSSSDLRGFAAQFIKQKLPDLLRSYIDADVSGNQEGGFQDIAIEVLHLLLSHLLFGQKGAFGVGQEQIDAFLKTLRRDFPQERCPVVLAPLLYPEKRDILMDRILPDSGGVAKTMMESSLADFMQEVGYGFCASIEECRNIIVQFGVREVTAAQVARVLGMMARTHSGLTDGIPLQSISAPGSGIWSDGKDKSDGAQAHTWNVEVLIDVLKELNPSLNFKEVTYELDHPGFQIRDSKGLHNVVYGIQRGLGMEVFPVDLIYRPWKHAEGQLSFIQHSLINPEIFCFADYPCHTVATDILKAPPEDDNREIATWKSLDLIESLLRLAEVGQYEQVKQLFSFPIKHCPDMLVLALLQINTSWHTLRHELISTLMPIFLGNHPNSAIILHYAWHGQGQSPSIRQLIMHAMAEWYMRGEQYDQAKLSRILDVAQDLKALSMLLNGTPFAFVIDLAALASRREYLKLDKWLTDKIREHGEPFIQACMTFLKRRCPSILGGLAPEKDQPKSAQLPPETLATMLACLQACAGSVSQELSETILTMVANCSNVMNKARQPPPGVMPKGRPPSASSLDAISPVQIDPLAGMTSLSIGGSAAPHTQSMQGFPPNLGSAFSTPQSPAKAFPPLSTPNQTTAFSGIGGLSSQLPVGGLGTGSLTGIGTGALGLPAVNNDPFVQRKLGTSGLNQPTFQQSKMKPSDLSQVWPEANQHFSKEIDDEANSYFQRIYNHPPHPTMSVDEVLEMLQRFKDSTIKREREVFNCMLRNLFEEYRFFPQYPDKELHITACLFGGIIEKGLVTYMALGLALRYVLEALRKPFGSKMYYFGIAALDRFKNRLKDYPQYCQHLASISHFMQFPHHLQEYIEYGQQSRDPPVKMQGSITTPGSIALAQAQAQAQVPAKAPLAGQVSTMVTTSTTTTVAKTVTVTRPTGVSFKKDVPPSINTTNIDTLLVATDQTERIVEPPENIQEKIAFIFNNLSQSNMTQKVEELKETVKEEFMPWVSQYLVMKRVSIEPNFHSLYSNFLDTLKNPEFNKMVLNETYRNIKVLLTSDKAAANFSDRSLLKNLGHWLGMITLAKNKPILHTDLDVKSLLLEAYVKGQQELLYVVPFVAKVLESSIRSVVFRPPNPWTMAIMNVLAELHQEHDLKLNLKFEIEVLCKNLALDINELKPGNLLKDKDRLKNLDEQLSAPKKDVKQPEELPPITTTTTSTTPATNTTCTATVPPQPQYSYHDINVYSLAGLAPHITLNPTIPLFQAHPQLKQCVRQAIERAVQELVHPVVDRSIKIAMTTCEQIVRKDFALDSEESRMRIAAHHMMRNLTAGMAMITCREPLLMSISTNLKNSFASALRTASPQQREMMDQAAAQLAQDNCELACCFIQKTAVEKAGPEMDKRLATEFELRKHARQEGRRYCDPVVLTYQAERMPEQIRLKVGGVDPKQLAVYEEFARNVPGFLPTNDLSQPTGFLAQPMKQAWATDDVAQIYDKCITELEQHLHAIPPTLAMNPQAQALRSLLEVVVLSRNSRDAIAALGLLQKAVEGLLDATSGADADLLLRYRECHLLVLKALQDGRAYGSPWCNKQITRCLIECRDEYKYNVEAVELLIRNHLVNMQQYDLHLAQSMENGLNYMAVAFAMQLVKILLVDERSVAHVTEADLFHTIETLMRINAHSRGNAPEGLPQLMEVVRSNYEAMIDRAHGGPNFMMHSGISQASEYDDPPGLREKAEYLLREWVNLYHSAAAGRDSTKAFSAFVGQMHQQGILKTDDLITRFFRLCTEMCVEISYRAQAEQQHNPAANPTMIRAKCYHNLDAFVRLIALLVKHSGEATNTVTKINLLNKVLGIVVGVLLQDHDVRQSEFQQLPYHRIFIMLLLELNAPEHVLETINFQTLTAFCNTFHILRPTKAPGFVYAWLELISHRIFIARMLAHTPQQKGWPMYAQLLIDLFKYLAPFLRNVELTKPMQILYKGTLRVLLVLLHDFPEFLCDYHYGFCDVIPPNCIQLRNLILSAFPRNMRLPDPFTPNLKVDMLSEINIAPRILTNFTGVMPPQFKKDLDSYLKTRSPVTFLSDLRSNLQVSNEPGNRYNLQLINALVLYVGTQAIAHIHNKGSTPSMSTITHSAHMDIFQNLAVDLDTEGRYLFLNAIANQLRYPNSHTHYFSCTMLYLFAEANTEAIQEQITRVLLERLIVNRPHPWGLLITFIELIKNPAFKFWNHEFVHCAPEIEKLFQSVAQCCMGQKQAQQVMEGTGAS
UniProt O75175: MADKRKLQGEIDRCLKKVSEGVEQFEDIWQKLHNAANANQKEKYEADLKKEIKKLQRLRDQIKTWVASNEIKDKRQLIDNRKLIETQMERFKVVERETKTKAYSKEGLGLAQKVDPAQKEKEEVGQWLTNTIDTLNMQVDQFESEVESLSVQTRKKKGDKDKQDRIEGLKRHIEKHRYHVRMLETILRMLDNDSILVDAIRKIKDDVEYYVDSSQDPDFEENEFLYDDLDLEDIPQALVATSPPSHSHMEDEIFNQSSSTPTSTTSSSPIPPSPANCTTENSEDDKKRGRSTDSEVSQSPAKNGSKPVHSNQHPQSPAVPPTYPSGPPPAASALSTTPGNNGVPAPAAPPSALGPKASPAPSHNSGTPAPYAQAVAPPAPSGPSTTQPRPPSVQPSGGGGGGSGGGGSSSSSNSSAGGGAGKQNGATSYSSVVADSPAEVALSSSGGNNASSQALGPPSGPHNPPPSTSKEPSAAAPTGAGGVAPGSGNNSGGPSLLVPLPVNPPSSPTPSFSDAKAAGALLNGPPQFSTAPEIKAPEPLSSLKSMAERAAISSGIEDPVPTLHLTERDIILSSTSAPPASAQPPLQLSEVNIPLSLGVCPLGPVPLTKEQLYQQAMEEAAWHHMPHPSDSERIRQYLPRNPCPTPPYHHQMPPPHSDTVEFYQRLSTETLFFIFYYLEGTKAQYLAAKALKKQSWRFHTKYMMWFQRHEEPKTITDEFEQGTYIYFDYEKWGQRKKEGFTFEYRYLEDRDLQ

Flag-TTP S318D (mouse) = target: T2, Flag-TTP S318D (mouse) (UniProt P22893); experiment: as above
T2 sequence: T1 sequence with D316S, S318D

[1] = target: T3, Flag-TTP S52,178,316D (mouse) (UniProt P22893); experiment: as above
T3 sequence: T1 sequence with S52D, S178D

[2] = target: T4, Flag-TTP S52,178D (mouse) (UniProt P22893); experiment: as above
T4 sequence: T1 sequence with S52D, S178D, D316S

[3] = target: T5, Flag-TTP wild-type (tristetraprolin) (mouse) (UniProt P22893); experiment: as above
T5 sequence: T1 sequence with D316S

[4] = target: T6, Flag-TTP S316,318A (mouse) (UniProt P22893); experiment: as above
T6 sequence: T1 sequence with D316A, S318A

GST-14-3-3 = GST-14-3-3 (UniProt P63101); experiment: pull-down; 2 μg GST fusion on Glutathione-Sepharose 4B; 300 μg lysate of RAW264.7 cells treated with 100 ng/ml LPS for 0, 1, 2, 4 h; 20 mM HEPES pH 7.9, 100 mM NaCl, 2.5 mM MgCl2, 0.1 mM EDTA, 0.05% NP-40, 1% Triton X-100; 4 °C, 2 h; washes with 0.2 M NaCl; blots with anti-TTP and anti-p-S316; only the target purified

B1: Endogenous TTP of LPS-treated RAW264.7 cells (protein, UniProt P22893 1-319)
chain: T1 sequence with D316S
binding (GST-14-3-3): binds

B2: Endogenous TTP with Ser316 phosphorylation (LPS-treated RAW264.7 cells) (protein, UniProt P22893 1-319)
chain: T1 sequence with D316S
modifications: phosphoserine at 316
binding (GST-14-3-3): binds

Other lines, results leading:

binding (Flag-TTP S316D (mouse)): binds weakly
binding (Flag-TTP S318D (mouse)): binds
binding [1]: no binding
binding [2]: binds weakly
binding [3]: binds
binding [4]: binds
Molecule: CCR4-NOT complex subunit 1 (CNOT1) (from UniProt A5YKK6 1-2376)

binding [3]: binds
binding [4]: binds
Molecule: CNOT3 (from UniProt O75175 1-753)

— publication PMC8180021
